Measurements reported in the RNAGym collection of RNA variant scans (doi:10.7554/elife.90254).
The source gives no read counts; variants with many changes may rest on few reads.

B1: LINE1-full (parent)
chain: UACGUAGGUGGUUUUCCCCUGAUAGUGCUAAGGGGGCCUGGAAGUUUGGACUGGGCAGAGCUCAACACAGCGUGGCAAAGUGGCUGUGGCUAGACUGCCUCUCUGGAUUCCUCGUCACUCAGCAGGGCAUCUCUGAGAGAAAUGCC

Variants of: B1
Assay: self-cleavage, relative activity (ratio to wild type); higher = more cleavage; in vitro, sequencing; the parent is a self-cleaving ribozyme

| Variant | self-cleavage |
| --- | --- |
| U14C U47C A78G A124U | 1.4 |
| U1C A78U U96C A138G | 0.2 |
| G53U U109C U134C | 1 |
| U12C U85A A117C | 0.07 |
| C19U U85C U100A U108C | 0.16 |
| U20C U47C A65G A117U U130A | 0 |
| U20C A124C C128U U143C | 1.85 |
| U14C A57G U81C G125U A129G A142G | 2.07 |
| A22U U47C A140U | 0.52 |
| G25C C68U U96C U102A | 0.12 |
| A2U U26A A77U | 0.72 |
| C68U U96C C146U | 0.04 |
| U13A U26A G40A A92G C128U U143A | 0.06 |
| U5C U9C U85A | 0.11 |
| U9C U14C U143A | 1.53 |
| G10A C28A A78G A79U U130C | 0.64 |
| G41U C61U A117U A124G A136G C145G | 0 |
| C3A A59G A107G | 0 |
| A79G A129G A141G | 1.68 |
| A31G U47C U87C | 0.63 |
| U12C U20C U46A A141G | 1.11 |
| G48C U96A A124G A142G | 0.06 |
| A50G G80U U85A A136G | 0.02 |
| U47C G49U U102C | 0.7 |

| Variant | self-cleavage |
| --- | --- |
| U62A A78U U115C | 0.02 |
| U39C U109C A124U A136U | 1.5 |
| U109C A117U A141G | 1.9 |
| A30G A64G A78G | 0 |
| U81A U96C U108C C110U | 0.31 |
| U104C A138U A141G | 2.64 |
| U13C A69G U100C | 0 |
| U39C U81C U108C C113A A142C | 1.89 |
| A42G A57G A78U C90U A138G | 0.09 |
| A2G C3U U45C A140G | 1.36 |
| U1A U73C U112A A129G | 2.3 |
| U13C U102C U143A | 1.06 |
| G40A A77U A121U A124G | 0.36 |
| A30G G34A A50G | 0.52 |
| U14C U26C A94G U100C | 0 |
| A79G U85C G137A | 0.22 |
| A42G A124G G139U | 0.77 |
| U39C U52C U112G C113U A142G U143C C145U | 0.76 |
| U26G U100A U104C A129U | 1.23 |
| U81A G82A U143C | 2.01 |
| C19U U85A A136G | 0.06 |
| U29C A67G U115C G122A | 0 |
| A50U A67U U109A | 0.04 |
| A22G U62C A92U | 0.35 |

| Variant | self-cleavage |
| --- | --- |
| A50G C76U U134G | 1.63 |
| G8U U45C C98U | 0.18 |
| U26A U102G A142G | 0.21 |
| U45G U52A U102G U132C | 0.61 |
| A24G G74A U87G | 0.14 |
| A30G A42G U45A U46C U119C | 0.8 |
| U1A U13C U20C U47C | 1.02 |
| A43G A140G C146G | 0.7 |
| U12C A57U U100C A107U U108C | 0.63 |
| U12G A57U G75U U87A A107G | 0.08 |
| A24G U104C U132C U143G | 2.42 |
| A59G U109A U119C A121U | 0.14 |
| U23C U45C C71U G135A | 1.83 |
| A43G U62A G83U | 0.05 |
| A24G A67G A124G | 0.64 |
| U39C U87A A121G C133A | 0.15 |
| U45C U81C C131U | 1.59 |
| A59G U100C U119C G125A | 0 |
| A24G U26G G32A A79G | 0.75 |
| U47G A64G C98A | 0.06 |
| U9A A43G U45C U47A G48A U52A A94U A107G A136G | 0 |
| U52C A64U U81G A94U | 0.21 |
| A30G U46A A94G | 0.11 |
| A64C A78G U96C | 0.26 |

| Variant | self-cleavage |
| --- | --- |
| U1C A31G U96A A138G | 0.16 |
| U13A U100C U108A A129G | 1.84 |
| A22G A42G U112C U119C | 0 |
| A59U G60A U115A | 0.07 |
| U52A U104C U143C | 2.13 |
| U9C U87A U115G | 0.17 |
| U13C U62C A117G A142G G144A | 0.08 |
| A43G U102C U112C | 1.06 |
| A30G U46A G82A | 1.56 |
| C17A U108C C113U | 1.06 |
| U29A U73C G127A A136G | 1.62 |
| U23C U132C A141G | 0.12 |
| U26A A43G A94U | 0.11 |
| A79G G82A A138G | 1.78 |
| U5C A6G G144A | 0.52 |
| U52C G106C A141G | 0.8 |
| U45C A59U A136G | 1.28 |
| G53A A92G A142G | 0.11 |
| U26A U73C C145U | 2.34 |
| A30U A43G U46A U130C | 1.12 |
| U14G U46C U81A C98U A136G | 0.82 |
| U12C U47C U143A | 0.67 |
| U14C U62C A64G A129G | 0 |
| G27A A57G A65G A129G | 0 |

| Variant | self-cleavage |
| --- | --- |
| A65U A77G U96A A129G | 0.04 |
| U14C A65G A136G | 0.22 |
| A22G A117U U143C | 1.06 |
| U134A A136G A141C | 2.63 |
| G7U U62C U102A | 0 |
| U96C C110U U143A C146U | 0.15 |
| G35U U115C U134C | 1.32 |
| U1C A64G A140G | 0.07 |
| U13A A22U A31G | 0.56 |
| U73G A121G G135U | 1.93 |
| U15C U73A A79G | 1.3 |
| U1C G21A G88A U104A | 0.02 |
| G97A A107G A141G | 0.09 |
| U15C U26C C71A | 0.3 |
| U12G U26C U112C U119A A142G | 1.15 |
| U39C G70A A136G | 0.05 |
| A6U A31U A59G A141G | 0.33 |
| A2G A43G A124U A129G | 1.02 |
| A57G U85C U100C | 0.84 |
| U104A U109A U132C C145A | 0.92 |
| A2U U87A A117U | 0.08 |
| U12C U20A A65G | 0.06 |
| A42G A64C A92G | 0 |
| A42G U73A U134A | 0.84 |

| Variant | self-cleavage |
| --- | --- |
| G10U U45C C56U | 0.15 |
| A57G A59G C63A U115C A136G | 0.06 |
| A94U G106A U130A C131A A136U | 0.34 |
| U14C A59G U62C A124G | 0 |
| C28G G35U U45A A124G | 0.62 |
| U52C A79G A129G | 2.45 |
| G33A U112C G135U | 1.02 |
| A31G G55C U62C | 0.03 |
| A43G A57U U132C | 0.18 |
| U5C C19U A121U U130C | 1.8 |
| U14C A22G U108C A138G | 0.74 |
| A77U A94G U130C | 0.07 |
| C51A U85C A140G | 0.11 |
| C90A A94G G127A | 0.03 |
| U29A U39C A69G | 0 |
| U1C U13C U23C A141G | 0.73 |
| U5C U104C A117U | 2.4 |
| G32A A59G G114A | 0.05 |
| A24G A43G A136U | 0.8 |
| A59G C101A U112C | 0.08 |
| U52A U91C U115A | 0.78 |
| U96C A117U C118A U143A | 0.05 |
| U9C U20A U85A | 0.19 |
| U39C A78U U132A | 1.99 |

| Variant | self-cleavage |
| --- | --- |
| U39A G44C U52A G106A A136C | 1.43 |
| A2U U13C U26G U39C A69G A79U U102C C123A | 0.38 |
| U1C U9C A59G | 0 |
| U47C A59G A138G A142G | 0 |
| U26C U47C A117C | 0.71 |
| C28A U109C U112A | 0.88 |
| U46A U104A A136G | 1.41 |
| A6G G60U A117U | 0.15 |
| U46A G49C U108C C145A | 1.38 |
| U45G A65G G74A U119C C131A | 0.08 |
| A42G A77G A140U | 2.12 |
| U81A G135A A141G | 2.26 |
| U39C A43U A136U | 1.02 |
| U15C U81G G114U | 1.21 |
| U12C A77G A124G | 0.54 |
| U9C A57G A64G | 0 |
| G10A U62C U130C | 0.07 |
| U13C C17A U108A U132A | 0.9 |
| A6U U26C U39C A50U U119A A121U | 0.31 |
| U119A A124U G135U | 1.37 |
| A31U G32A C120U A136G | 1.11 |
| C17A G74A U130A | 1.22 |
| A50G G83A U100C C110U A129G | 0.82 |
